Values marked as one replicate rest on one cluster of the flow cell; about a third of the high ones do not repeat.
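Note: ATP exposure 15 min at 22 °C before imaging.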

The subject of the series is ATP. Put plainly: switch fluorescence ratio, 500 uM ATP over buffer (Cy3 cluster intensity, sum of 5 cycles each) (fold (ratio)); higher = stronger signal-on switching upon ATP binding; sequences stand for … in TCGTCGGCAGCGTCAGATGTGTATAAGAGACAGTTTTTTTTTTTTTTTTTTTTTTTTT…TC. To be noted: aptamer strand: ATP DNA aptamer (quencher-CACCTGGGGGAGTATTGCGGAGGAAGG + anchor), 100 nM annealed; ATP concentration: 500 uM; one replicate. An outline of the steps: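 Clusters carrying Cy3-labelled switching strands on a modified Illumina MiSeq flow-cell were annealed to 100 nM quencher-labelled ATP aptamer and imaged in selection buffer. They were imaged again after 15 min with 500 uM ATP at 22 °C, over five buffer/ATP cycles with NaOH stripping and re-annealing in between. For each cluster, the fluorescence ratio is the summed Cy3 intensity of the target cycles divided by that of the buffer cycles, averaged per switch-domain sequence. Clusters outside 100-1000 RFU were left out.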
For GCATACCAAC, the switch fluorescence ratio was 1.13.
GCAATGCAGA: the switch fluorescence ratio amounted to 1.08.
Then GCTAGACCGA, with 1.01.
Take TATCCGAATT: the switch fluorescence ratio stood at 1.01.
As for GGGGGCTCGG, the switch fluorescence ratio stood at 1.01.
With TTCGTGTTAA, the switch fluorescence ratio worked out at 0.988.
GCTGTCTCC: the switch fluorescence ratio stood at 1.03.
Then ATAATGAATT, with 0.987; and CCGAAATCGG, with 1.18.
For CATCTAGTGG, the switch fluorescence ratio was determined as 0.964.
On to CTGGAAATTA, for which the switch fluorescence ratio is 1.02.
On to ATTCTGACGT, for which the switch fluorescence ratio came out at 1.18.
Take GCAGATAGTG: the switch fluorescence ratio stood at 1.01.
Turning to ACTTACGATG, the switch fluorescence ratio is 1.41.
On to ACGCGCGTTT, for which the switch fluorescence ratio was 1.
Take CAGCATTAAA: the switch fluorescence ratio stood at 1.71.
In the case of GACAGCACTC, the switch fluorescence ratio amounted to 1.79.
Then AGAGAGGAGC, with 1.04.
Take GATCGGTATA: the switch fluorescence ratio is 0.982.
Turning to GATCCCCCTA, the switch fluorescence ratio stood at 1.04.
Take GAAACTGAAG: the switch fluorescence ratio was 0.991.
TCTGCTTGTC: the switch fluorescence ratio worked out at 0.974.
Then GTCATTTGCT, with 0.984; and TTTGGTATAA, with 0.969.
The result for GAGCATTAAC reads 1.41; that for GCAGTAAGGG, 1.05.
For the sequence GTGCTTGCAT, the switch fluorescence ratio is 0.987.
For GGGTTAAC, the switch fluorescence ratio was 0.955.
Take GTTAAACATT: the switch fluorescence ratio is 1.03.
The result for GGAACTGGGG reads 0.988; that for ACCGACAATG, 1.08; that for TTGCAGGGCG, 1.29.
For GGGTTCTACT, the switch fluorescence ratio is 1.01.
The result for TTGTGGTGGC reads 0.952; that for TAGAACTACT, 1.04.
Take AAGCAGGTCT: the switch fluorescence ratio is 1.06.
Take GGGCGAGCTG: the switch fluorescence ratio is 0.969.
Then TGCCAGTATG, with 0.957; and ATGTATAATC, with 1.03.
For the sequence TAGTAGGGCC, the switch fluorescence ratio was 0.975.
As to GGTCTCTCGA, the switch fluorescence ratio came to 0.991.
For the sequence GACGTGATTT, the switch fluorescence ratio was 1.99.
With CGCCACCAGT, the switch fluorescence ratio is 1.71.
Take AGCGGGTCTT: the switch fluorescence ratio was 0.999.
As for ACAACACTTG, the switch fluorescence ratio stood at 1.19.
The result for TTCAAGGC reads 1.07.
Take ACTCGCGGCT: the switch fluorescence ratio amounted to 1.06.
Take AGCCTCAACG: the switch fluorescence ratio turned out to be 1.03.
As for CTTGGTGCAT, the switch fluorescence ratio was 1.07.
The result for GCCGGGCCGT reads 0.973; that for CAAACAGAAA, 1.01; that for CATCCAGGGA, 1.05.
As for TAATCGGACT, the switch fluorescence ratio was determined as 0.961.
Regarding AATTCTGGCA, the switch fluorescence ratio amounted to 0.943.
In the case of TATGATACTT, the switch fluorescence ratio is 1.01.
On to AAAAGTACA, for which the switch fluorescence ratio was 1.03.
Turning to GGTCGGAGG, the switch fluorescence ratio amounted to 0.956.
As for GAATTCGGTT, the switch fluorescence ratio stood at 0.993.
Turning to TTCTCCCGTT, the switch fluorescence ratio worked out at 1.12.
In the case of AAACAACGGC, the switch fluorescence ratio was determined as 0.995.
The result for CGAAGGTCCC reads 1.03; that for ATCGTTAACT, 1.03.
As for CATTTTGGA, the switch fluorescence ratio worked out at 1.02.
On to TAGAATCCGA, for which the switch fluorescence ratio amounted to 1.02.
On to GGGGCTTGTT, for which the switch fluorescence ratio stood at 0.972.
Then TTGCTAGGTA, with 1.03; and GGCCGAGTGC, with 1.

These data come from the supplement of paper PMC10126150.
